Consider two compounds from paper PMC9411691, “Protein-Ligand Identification and In Vitro Inhibitory Effects of Cathine on 11 Major Human Drug Metabolizing Cytochrome P450s” (International Journal of Toxicology, 2022).

Structures are written as SMILES. Structures can show the parent of a compound that is named as a salt. Where two headings read alike, the source gives them in different places. Bounds are passed on as bounds.

In series [1] the target is T1, CYP2C9 (Homo sapiens, UniProt P11712). The settings on record: earlier study of the authors; cited from earlier work.
T1 sequence (P11712 whole entry): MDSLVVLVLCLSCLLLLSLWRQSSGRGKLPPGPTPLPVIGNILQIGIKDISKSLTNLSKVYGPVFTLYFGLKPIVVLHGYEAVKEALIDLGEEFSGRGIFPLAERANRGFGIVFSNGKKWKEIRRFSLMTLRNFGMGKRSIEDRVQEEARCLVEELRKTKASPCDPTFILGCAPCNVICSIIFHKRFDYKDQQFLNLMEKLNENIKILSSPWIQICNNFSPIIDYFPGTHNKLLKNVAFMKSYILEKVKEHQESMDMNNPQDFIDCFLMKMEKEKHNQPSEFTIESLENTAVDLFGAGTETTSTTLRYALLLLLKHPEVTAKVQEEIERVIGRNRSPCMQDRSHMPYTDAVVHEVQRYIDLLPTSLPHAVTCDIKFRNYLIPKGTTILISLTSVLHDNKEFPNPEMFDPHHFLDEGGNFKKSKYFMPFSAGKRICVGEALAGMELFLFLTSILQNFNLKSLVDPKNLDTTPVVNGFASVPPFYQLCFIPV
The conditions of series [2]: cited from earlier work.
Series [3] deals with T2, CYP3A4 (Homo sapiens, UniProt P08684). Conditions: earlier study of the authors; cited from earlier work.
For series [4], the target named is T3, CYP2D6 (Homo sapiens, UniProt P10635). Conditions: earlier study of the authors; cited from earlier work.
T3 sequence (P10635 whole entry): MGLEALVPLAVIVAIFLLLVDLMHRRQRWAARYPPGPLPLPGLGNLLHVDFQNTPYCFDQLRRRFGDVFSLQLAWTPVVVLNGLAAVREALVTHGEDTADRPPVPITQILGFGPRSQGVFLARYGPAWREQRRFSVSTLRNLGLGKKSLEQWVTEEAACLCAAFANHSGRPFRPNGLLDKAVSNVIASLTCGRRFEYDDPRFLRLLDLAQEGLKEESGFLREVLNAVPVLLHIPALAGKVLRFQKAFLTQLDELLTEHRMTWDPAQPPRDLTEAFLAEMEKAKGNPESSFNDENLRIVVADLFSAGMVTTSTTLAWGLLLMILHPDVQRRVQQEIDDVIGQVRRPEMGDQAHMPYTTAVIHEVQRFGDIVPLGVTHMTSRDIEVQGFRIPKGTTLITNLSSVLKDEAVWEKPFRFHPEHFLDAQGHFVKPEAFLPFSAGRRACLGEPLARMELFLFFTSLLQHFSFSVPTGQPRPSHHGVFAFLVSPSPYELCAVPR
Another series deals with CYP2C19 (Homo sapiens, UniProt P33261). Put plainly: Vivid CYP450 fluorescence-based inhibition assay, CYP2C19.
Chain of UniProt P33261 (P33261 whole entry): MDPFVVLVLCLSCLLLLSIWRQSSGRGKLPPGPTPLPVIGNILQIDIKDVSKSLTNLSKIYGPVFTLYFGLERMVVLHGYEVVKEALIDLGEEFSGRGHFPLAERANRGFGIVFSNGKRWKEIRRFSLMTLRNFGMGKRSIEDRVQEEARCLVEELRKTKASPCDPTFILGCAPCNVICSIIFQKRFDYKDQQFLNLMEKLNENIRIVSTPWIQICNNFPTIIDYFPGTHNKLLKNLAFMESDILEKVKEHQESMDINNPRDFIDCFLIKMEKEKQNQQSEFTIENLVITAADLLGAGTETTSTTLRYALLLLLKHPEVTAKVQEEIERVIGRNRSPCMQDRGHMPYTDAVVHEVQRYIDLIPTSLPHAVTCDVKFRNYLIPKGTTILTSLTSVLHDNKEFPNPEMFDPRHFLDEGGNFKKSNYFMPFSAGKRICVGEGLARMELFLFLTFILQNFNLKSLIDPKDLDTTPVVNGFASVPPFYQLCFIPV
For another series, the target named is T4, CYP2C8 (Homo sapiens, UniProt P10632).
T4 sequence (P10632 1-490): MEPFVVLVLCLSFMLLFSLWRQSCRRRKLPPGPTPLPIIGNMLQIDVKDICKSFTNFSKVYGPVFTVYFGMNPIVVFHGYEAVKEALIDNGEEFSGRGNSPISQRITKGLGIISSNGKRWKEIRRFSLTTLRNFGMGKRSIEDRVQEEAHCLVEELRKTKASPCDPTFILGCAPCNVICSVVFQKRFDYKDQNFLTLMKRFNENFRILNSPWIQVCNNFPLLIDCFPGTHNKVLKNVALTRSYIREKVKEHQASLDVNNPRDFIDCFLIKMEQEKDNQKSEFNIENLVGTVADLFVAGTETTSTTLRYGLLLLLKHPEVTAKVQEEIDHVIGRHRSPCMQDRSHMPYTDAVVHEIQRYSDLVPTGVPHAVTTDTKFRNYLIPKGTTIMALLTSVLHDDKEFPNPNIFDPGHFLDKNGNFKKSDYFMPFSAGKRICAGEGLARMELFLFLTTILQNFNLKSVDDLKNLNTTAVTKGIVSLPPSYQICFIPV
Put plainly: Vivid CYP450 fluorescence-based inhibition assay, CYP2C8.

For series [5], the target named is T2, CYP3A4. In words: Vivid CYP450 fluorescence-based inhibition assay, CYP3A4.
Series [6] concerns the target T3, CYP2D6. Put plainly: Vivid CYP450 fluorescence-based inhibition assay, CYP2D6.
A further series concerns the target T5, CYP2J2 (Homo sapiens, UniProt P51589).
T5 sequence (P51589 1-502): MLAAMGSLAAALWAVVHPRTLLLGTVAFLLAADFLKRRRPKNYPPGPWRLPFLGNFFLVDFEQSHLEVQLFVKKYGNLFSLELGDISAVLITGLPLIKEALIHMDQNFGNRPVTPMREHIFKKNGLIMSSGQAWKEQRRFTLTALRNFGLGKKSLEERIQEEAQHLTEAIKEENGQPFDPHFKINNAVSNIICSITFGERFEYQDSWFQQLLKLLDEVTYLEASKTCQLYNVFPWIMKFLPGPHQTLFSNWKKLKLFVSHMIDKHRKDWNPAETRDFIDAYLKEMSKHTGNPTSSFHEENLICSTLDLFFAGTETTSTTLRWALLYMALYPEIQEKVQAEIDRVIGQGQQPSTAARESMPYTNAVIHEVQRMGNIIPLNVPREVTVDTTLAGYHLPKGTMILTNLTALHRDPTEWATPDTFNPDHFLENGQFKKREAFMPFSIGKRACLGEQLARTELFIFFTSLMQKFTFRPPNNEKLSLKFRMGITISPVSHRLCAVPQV
Put plainly: Vivid CYP450 fluorescence-based inhibition assay, CYP2J2.

In series [7] the target is T1, CYP2C9. Put plainly: Vivid CYP450 fluorescence-based inhibition assay, CYP2C9.
In the next series the target is CYP3A5 (Homo sapiens, UniProt P20815). In words: Vivid CYP450 fluorescence-based inhibition assay, CYP3A5. The settings on record: IC50 shift criterion >2.
Chain of UniProt P20815 (P20815 whole entry): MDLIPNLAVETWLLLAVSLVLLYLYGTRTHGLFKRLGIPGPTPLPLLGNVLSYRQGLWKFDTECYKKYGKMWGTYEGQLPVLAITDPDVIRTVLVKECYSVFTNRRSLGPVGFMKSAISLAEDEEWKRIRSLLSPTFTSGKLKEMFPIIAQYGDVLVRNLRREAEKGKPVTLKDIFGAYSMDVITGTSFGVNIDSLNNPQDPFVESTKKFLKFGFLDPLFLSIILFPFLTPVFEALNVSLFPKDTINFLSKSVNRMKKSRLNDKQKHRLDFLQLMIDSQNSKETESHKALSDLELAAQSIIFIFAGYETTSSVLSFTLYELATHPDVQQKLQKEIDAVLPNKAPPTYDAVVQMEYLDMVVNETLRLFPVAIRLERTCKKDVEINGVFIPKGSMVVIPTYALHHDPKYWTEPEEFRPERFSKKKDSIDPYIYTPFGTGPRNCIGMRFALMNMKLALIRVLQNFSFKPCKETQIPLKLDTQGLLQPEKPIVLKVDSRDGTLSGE
On the set-up of series [8]: method as in PMID 6111010. Conditions: cited from earlier work.
The next series deals with T6, CYP1A2 (Homo sapiens, UniProt P05177).
T6 sequence (P05177 2-516 limits assumed): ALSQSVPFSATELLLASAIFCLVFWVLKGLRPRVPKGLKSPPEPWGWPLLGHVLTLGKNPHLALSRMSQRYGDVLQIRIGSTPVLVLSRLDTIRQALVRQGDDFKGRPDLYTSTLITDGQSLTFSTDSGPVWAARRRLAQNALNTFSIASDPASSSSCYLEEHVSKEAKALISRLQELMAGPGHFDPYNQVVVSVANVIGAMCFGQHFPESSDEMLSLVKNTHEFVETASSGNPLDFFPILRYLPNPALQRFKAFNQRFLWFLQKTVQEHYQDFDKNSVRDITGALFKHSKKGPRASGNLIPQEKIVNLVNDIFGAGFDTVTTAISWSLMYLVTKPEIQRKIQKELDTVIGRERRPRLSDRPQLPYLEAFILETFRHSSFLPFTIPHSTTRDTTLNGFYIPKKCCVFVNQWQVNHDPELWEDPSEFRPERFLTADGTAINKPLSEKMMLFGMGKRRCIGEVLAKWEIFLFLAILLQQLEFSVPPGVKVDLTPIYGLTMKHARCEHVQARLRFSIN
In words: Vivid CYP450 fluorescence-based inhibition assay, CYP1A2.

In a further series the target is CYP2E1 (Homo sapiens, UniProt P05181). In words: Vivid CYP450 fluorescence-based inhibition assay, CYP2E1.
Chain of UniProt P05181 (P05181 whole entry): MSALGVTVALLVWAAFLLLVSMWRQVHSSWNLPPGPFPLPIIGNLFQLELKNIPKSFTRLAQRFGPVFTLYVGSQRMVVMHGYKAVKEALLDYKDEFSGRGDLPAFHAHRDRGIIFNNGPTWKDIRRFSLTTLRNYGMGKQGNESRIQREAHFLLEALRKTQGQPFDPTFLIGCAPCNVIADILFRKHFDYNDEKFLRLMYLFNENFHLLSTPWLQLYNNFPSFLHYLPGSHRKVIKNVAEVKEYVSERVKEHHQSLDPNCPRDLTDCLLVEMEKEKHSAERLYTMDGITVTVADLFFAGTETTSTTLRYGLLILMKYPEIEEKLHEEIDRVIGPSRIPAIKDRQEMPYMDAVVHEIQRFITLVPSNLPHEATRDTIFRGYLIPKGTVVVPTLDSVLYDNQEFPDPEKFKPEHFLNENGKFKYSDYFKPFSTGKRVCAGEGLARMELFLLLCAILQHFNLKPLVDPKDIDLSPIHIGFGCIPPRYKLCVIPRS
Another series has as its target T7, CYP2B6 (Homo sapiens, UniProt P20813).
T7 sequence (P20813 1-491): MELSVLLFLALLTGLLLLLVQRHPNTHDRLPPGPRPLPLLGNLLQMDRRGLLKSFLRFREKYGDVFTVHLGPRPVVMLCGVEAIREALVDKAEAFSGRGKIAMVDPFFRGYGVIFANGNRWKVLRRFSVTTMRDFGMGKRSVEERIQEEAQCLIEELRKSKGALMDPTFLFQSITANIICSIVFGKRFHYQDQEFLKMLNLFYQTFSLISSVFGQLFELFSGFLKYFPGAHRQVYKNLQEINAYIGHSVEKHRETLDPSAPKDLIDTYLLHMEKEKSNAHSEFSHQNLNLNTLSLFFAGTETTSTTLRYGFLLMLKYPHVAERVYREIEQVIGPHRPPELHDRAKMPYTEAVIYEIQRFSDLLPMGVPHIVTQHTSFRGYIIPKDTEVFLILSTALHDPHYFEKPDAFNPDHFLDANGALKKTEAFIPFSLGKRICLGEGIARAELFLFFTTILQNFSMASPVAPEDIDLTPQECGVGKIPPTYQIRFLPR
In words: Vivid CYP450 fluorescence-based inhibition assay, CYP2B6.

For the next series, the target named is T8, CYP2A6 (Homo sapiens, UniProt P11509).
T8 sequence (P11509 1-494): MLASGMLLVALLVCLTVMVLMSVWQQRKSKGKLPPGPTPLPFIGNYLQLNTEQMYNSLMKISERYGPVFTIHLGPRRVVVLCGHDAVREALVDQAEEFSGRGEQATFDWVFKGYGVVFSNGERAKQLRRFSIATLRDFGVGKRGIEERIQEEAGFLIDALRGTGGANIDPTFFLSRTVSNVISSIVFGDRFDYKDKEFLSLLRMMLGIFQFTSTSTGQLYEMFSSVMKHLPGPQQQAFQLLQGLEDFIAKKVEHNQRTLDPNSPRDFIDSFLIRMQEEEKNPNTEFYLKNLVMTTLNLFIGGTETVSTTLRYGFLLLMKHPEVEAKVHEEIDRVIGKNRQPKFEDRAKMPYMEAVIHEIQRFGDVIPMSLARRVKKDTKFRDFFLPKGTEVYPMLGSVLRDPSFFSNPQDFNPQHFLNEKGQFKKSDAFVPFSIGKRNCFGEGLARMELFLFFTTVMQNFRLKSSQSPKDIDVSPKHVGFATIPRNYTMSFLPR
Put plainly: Vivid CYP450 fluorescence-based inhibition assay, CYP2A6.

The mark [9] stands for this setting: human, ref https://www.emcdda.europa.eu/publications/drug-profiles/khat.
Where [10] appears, read: read-out: IC50 with NADPH, 30 minutes pre-incubation with NADPH (time-dependent inhibition).
Setting [11] is: IC50 with NADPH, 30 minutes pre-incubation with NADPH (time-dependent inhibition).
The mark [12] stands for this setting: IC50 without NADPH, reversible inhibition, no NADPH in pre-incubation, substrate EOMCC.

As for `C[C@H](N)C(=O)c1ccccc1` [cathinone], on CYP2C9 [1], the “inhibition of CYP2C9 in vitro, in words” value is reported as “negligible inhibition”. Besides, the “detectable in the urine after ingestion, up to” value in [2] (human urine) is 22 to 26 h. In series [2] (setting [9]), the elimination half-life is 1.5 ± 0.8 h and the “excreted in the urine” value was 2%. Moreover, the “inhibition of CYP3A4 in vitro, in words” value at CYP3A4 [3] is “negligible inhibition”. Also, the “inhibition of CYP2D6 in vitro, in words” value at CYP2D6 [4] is “negligible inhibition”.
Regarding `C[C@H](N)[C@@H](O)c1ccccc1` [Cathine, (1 S, 2 S)-2-amino-1-phenylpropan-1-ol.hydrochloride], the IC50 against CYP2C19 is over 100 µM; against CYP2C8, over 100 µM; at CYP2C8 (setting [10]) it was over 100 µM; at CYP3A4 [5], 90 µM; against CYP2D6 [6] (setting [11]), 860 µM; against CYP2D6 [6] (setting [12]), 435 µM. In addition, the IC50 at CYP2J2 was over 100 µM; against CYP2C9 [7] it was over 100 µM; at CYP1A2 (setting [11]) it was 255 µM; against CYP1A2 (setting [12]), 285 µM; against CYP2E1, over 100 µM; on CYP2B6, over 100 µM. Further, the half-inhibitory concentration (IC50) was over 100 µM on CYP2B6 (setting [10]); 70 µM against CYP2A6 (setting [11]); 80 µM on CYP2A6 (IC50 without NADPH, reversible inhibition, no NADPH in pre-incubation, substrate CC). Further, the “time-dependent (mechanism-based) inhibition, in words” value on CYP2C19 (IC50 shift criterion >2), at CYP2C8 (IC50 shift criterion >2), at CYP3A4 [5] (IC50 shift criterion >2), on CYP2D6 [6] (IC50 shift criterion >2), at CYP2J2 (IC50 shift criterion >2) and on CYP2C9 [7] (IC50 shift criterion >2) was “no time-dependent (mechanism-based) inhibition” each time. Besides, the “time-dependent (mechanism-based) inhibition, in words” value at CYP3A5, on CYP1A2 (IC50 shift criterion >2), at CYP2E1 (IC50 shift criterion >2), at CYP2B6 (IC50 shift criterion >2) and at CYP2A6 (IC50 shift criterion >2) was “no time-dependent (mechanism-based) inhibition” in each case. The values for the Ki on CYP3A4 [5] and at CYP2A6 were 100 µM and 63 µM, respectively. For the same compound, the mode of inhibition result on CYP3A4 [5] (Lineweaver-Burk plot) and on CYP2A6 (Lineweaver-Burk plot) was “non-competitive or mixed mode” throughout. The “serum concentration relative to cathinone” value in [2] (case report, khat chewer with haemorrhagic stroke) is given as 100 fold. In addition, in series [2] (human plasma, khat chewing), the “time at which maximal plasma concentrations are reached” value was 2.6 h. In addition, the “detectable in the urine after ingestion, up to” value in [2] (human urine) was 50 to 70 h. Moreover, the “detectable in urine samples after ingestion” value in series [2] (human urine) was at least 3 days. For the same compound, the “fraction absorbed in the mucosa of the oral cavity” value in series [2] (human, khat chewing) is listed as 84 ± 6%. Further, the “mean residence time (MRT)” value in [2] (human, khat chewing) is 10.2 ± 2.6 h. For the same compound, in [2] (setting [9]), the elimination half-life is 5.2 ± 3.4 h. Besides, the “times less potent than cathinone” value in series [8] is listed as 7-10 times. For the same compound, the IC50 shift at 60 min at CYP2A6 (human, pH 8, probe Vivid CC (3-cyanocoumarin)) stood at 1.14.
